# From patent publication US20240228567A1 (Zymeworks, published 2024)
# Molecular target: IL12 receptor on HEK reporter cells stably transfected with genes for the IL12 receptor (UniProt P42701 24-662; Q99665 24-862)
# Experiment: cell-based or functional assay
Binder,"EC50, IL12 RGA, repeat 1 [nM]","EC50, IL12 RGA, repeat 2 [nM]"
Masked IL12 HetFc fusion protein variant 37479 (p40 K197T) (Fc fusion) chain 1: [here human IgG1 Fc with changes without letters]SADGGIWELKKDVYVVELDWYPDAPGEMVVLTCDTPEEDGITWTLDQSSEVLGSGKTLTIQVKEFGDAGQYTCHKGGEVLSHSLLLLHKKEDGIWSTDILKDQKEPKNKTFLRCEAKNYSGRFTCWWLTTISTDLTFSVKSSRGSSDPQGVTCGAATLSAERVRGDNKEYEYSVECQEDSACPAAEESLPIEVMVDAVHKLTYENYTSSFFIRDIIKPDPPKNLQLKPLKNSRQVEVSWEYPDTWSTPHSYFSLTFCVQVQGKSKREKKDRVFTDKTSATVICRKNASISVRAQDRYYSSSWSEWASVPCSGGGGSGGGGSGGGGSNLPVATPDPGMFPCLHHSQNLLRAVSNMLQKARQTLEFYPCTSEEIDHEDITKDKTSTVEACLPLELTKNESCLNSRETSFITNGSCLASRKTSFMMALCLSSIYEDLKMYQVEFKTMNAKLLMDPKRQIFLDQNMLAVIDELMQALNFNSETVPQKSSLEEPDFYKTKIKLCILLHAFRIRAVTIDRVMSYLNAS chain 2: EPKSSDKTHTCPPCPAPEAAGGPSVFLFPPKPKDTLMISRTPEVTCVVVSVSHEDPEVKFNWYVDGVEVHNAKTKPREEQYNSTYRVVSVLTVLHQDWLNGKEYKCKVSNKALPAPIEKTISKAKGQPREPQVYVLPPSRDELTKNQVSLLCLVKGFYPSDIAVEWESNGQPENNYLTWPPVLDSDGSFFLYSKLTVDKSRWQQGNVFSCSVMHEALHNHYTQKSLSLSPGGGGGSGGGGSGGGSGGGSGGGGSGGGGSQVQLVESGGGVVQPGRSLRLSCAASGFTFSSYGMHWVRQAPGKGLEWVAFIRYDGSNKYYADSVKGRFTISRDNSKNTLYLQMNSLRAEDTAVYYCKTHGSHDNWGQGTMVTVSSGGSGGGSGGGSGGGSGGGSGQSVLTQPPSVSGAPGQRVTISCSGSRSNIGSNTVKWYQQLPGTAPKLLIYYNDQRPSGVPDRFSGSKSGTSASLAITGLQAEDEADYYCQSYDRYTHPALLFGTGTKVTVL,16.4,16.4
Masked IL12 HetFc fusion protein variant 37478 (p40 E59R) (Fc fusion) chain 1: [here human IgG1 Fc with changes without letters]SADGGIWELKKDVYVVELDWYPDAPGEMVVLTCDTPEEDGITWTLDQSSEVLGSGKTLTIQVKRFGDAGQYTCHKGGEVLSHSLLLLHKKEDGIWSTDILKDQKEPKNKTFLRCEAKNYSGRFTCWWLTTISTDLTFSVKSSRGSSDPQGVTCGAATLSAERVRGDNKEYEYSVECQEDSACPAAEESLPIEVMVDAVHKLKYENYTSSFFIRDIIKPDPPKNLQLKPLKNSRQVEVSWEYPDTWSTPHSYFSLTFCVQVQGKSKREKKDRVFTDKTSATVICRKNASISVRAQDRYYSSSWSEWASVPCSGGGGSGGGGSGGGGSNLPVATPDPGMFPCLHHSQNLLRAVSNMLQKARQTLEFYPCTSEEIDHEDITKDKTSTVEACLPLELTKNESCLNSRETSFITNGSCLASRKTSFMMALCLSSIYEDLKMYQVEFKTMNAKLLMDPKRQIFLDQNMLAVIDELMQALNFNSETVPQKSSLEEPDFYKTKIKLCILLHAFRIRAVTIDRVMSYLNAS chain 2: EPKSSDKTHTCPPCPAPEAAGGPSVFLFPPKPKDTLMISRTPEVTCVVVSVSHEDPEVKFNWYVDGVEVHNAKTKPREEQYNSTYRVVSVLTVLHQDWLNGKEYKCKVSNKALPAPIEKTISKAKGQPREPQVYVLPPSRDELTKNQVSLLCLVKGFYPSDIAVEWESNGQPENNYLTWPPVLDSDGSFFLYSKLTVDKSRWQQGNVFSCSVMHEALHNHYTQKSLSLSPGGGGGSGGGGSGGGSGGGSGGGGSGGGGSQVQLVESGGGVVQPGRSLRLSCAASGFTFSSYGMHWVRQAPGKGLEWVAFIRYDGSNKYYADSVKGRFTISRDNSKNTLYLQMNSLRAEDTAVYYCKTHGSHDNWGQGTMVTVSSGGSGGGSGGGSGGGSGGGSGQSVLTQPPSVSGAPGQRVTISCSGSRSNIGSNTVKWYQQLPGTAPKLLIYYNDQRPSGVPDRFSGSKSGTSASLAITGLQAEDEADYYCQSYDRYTHPALLFGTGTKVTVL,15.1,13.1
Masked IL12 HetFc fusion protein variant 37493 (p40 W15H) (Fc fusion) chain 1: [here human IgG1 Fc with changes without letters]SADGGIWELKKDVYVVELDHYPDAPGEMVVLTCDTPEEDGITWTLDQSSEVLGSGKTLTIQVKEFGDAGQYTCHKGGEVLSHSLLLLHKKEDGIWSTDILKDQKEPKNKTFLRCEAKNYSGRFTCWWLTTISTDLTFSVKSSRGSSDPQGVTCGAATLSAERVRGDNKEYEYSVECQEDSACPAAEESLPIEVMVDAVHKLKYENYTSSFFIRDIIKPDPPKNLQLKPLKNSRQVEVSWEYPDTWSTPHSYFSLTFCVQVQGKSKREKKDRVFTDKTSATVICRKNASISVRAQDRYYSSSWSEWASVPCSGGGGSGGGGSGGGGSNLPVATPDPGMFPCLHHSQNLLRAVSNMLQKARQTLEFYPCTSEEIDHEDITKDKTSTVEACLPLELTKNESCLNSRETSFITNGSCLASRKTSFMMALCLSSIYEDLKMYQVEFKTMNAKLLMDPKRQIFLDQNMLAVIDELMQALNFNSETVPQKSSLEEPDFYKTKIKLCILLHAFRIRAVTIDRVMSYLNAS chain 2: EPKSSDKTHTCPPCPAPEAAGGPSVFLFPPKPKDTLMISRTPEVTCVVVSVSHEDPEVKFNWYVDGVEVHNAKTKPREEQYNSTYRVVSVLTVLHQDWLNGKEYKCKVSNKALPAPIEKTISKAKGQPREPQVYVLPPSRDELTKNQVSLLCLVKGFYPSDIAVEWESNGQPENNYLTWPPVLDSDGSFFLYSKLTVDKSRWQQGNVFSCSVMHEALHNHYTQKSLSLSPGGGGGSGGGGSGGGSGGGSGGGGSGGGGSQVQLVESGGGVVQPGRSLRLSCAASGFTFSSYGMHWVRQAPGKGLEWVAFIRYDGSNKYYADSVKGRFTISRDNSKNTLYLQMNSLRAEDTAVYYCKTHGSHDNWGQGTMVTVSSGGSGGGSGGGSGGGSGGGSGQSVLTQPPSVSGAPGQRVTISCSGSRSNIGSNTVKWYQQLPGTAPKLLIYYNDQRPSGVPDRFSGSKSGTSASLAITGLQAEDEADYYCQSYDRYTHPALLFGTGTKVTVL,6.05,5.12
Masked IL12 HetFc fusion protein variant 37482 (p40 K84W) (Fc fusion) chain 1: [here human IgG1 Fc with changes without letters]SADGGIWELKKDVYVVELDWYPDAPGEMVVLTCDTPEEDGITWTLDQSSEVLGSGKTLTIQVKEFGDAGQYTCHKGGEVLSHSLLLLHWKEDGIWSTDILKDQKEPKNKTFLRCEAKNYSGRFTCWWLTTISTDLTFSVKSSRGSSDPQGVTCGAATLSAERVRGDNKEYEYSVECQEDSACPAAEESLPIEVMVDAVHKLKYENYTSSFFIRDIIKPDPPKNLQLKPLKNSRQVEVSWEYPDTWSTPHSYFSLTFCVQVQGKSKREKKDRVFTDKTSATVICRKNASISVRAQDRYYSSSWSEWASVPCSGGGGSGGGGSGGGGSNLPVATPDPGMFPCLHHSQNLLRAVSNMLQKARQTLEFYPCTSEEIDHEDITKDKTSTVEACLPLELTKNESCLNSRETSFITNGSCLASRKTSFMMALCLSSIYEDLKMYQVEFKTMNAKLLMDPKRQIFLDQNMLAVIDELMQALNFNSETVPQKSSLEEPDFYKTKIKLCILLHAFRIRAVTIDRVMSYLNAS chain 2: EPKSSDKTHTCPPCPAPEAAGGPSVFLFPPKPKDTLMISRTPEVTCVVVSVSHEDPEVKFNWYVDGVEVHNAKTKPREEQYNSTYRVVSVLTVLHQDWLNGKEYKCKVSNKALPAPIEKTISKAKGQPREPQVYVLPPSRDELTKNQVSLLCLVKGFYPSDIAVEWESNGQPENNYLTWPPVLDSDGSFFLYSKLTVDKSRWQQGNVFSCSVMHEALHNHYTQKSLSLSPGGGGGSGGGGSGGGSGGGSGGGGSGGGGSQVQLVESGGGVVQPGRSLRLSCAASGFTFSSYGMHWVRQAPGKGLEWVAFIRYDGSNKYYADSVKGRFTISRDNSKNTLYLQMNSLRAEDTAVYYCKTHGSHDNWGQGTMVTVSSGGSGGGSGGGSGGGSGGGSGQSVLTQPPSVSGAPGQRVTISCSGSRSNIGSNTVKWYQQLPGTAPKLLIYYNDQRPSGVPDRFSGSKSGTSASLAITGLQAEDEADYYCQSYDRYTHPALLFGTGTKVTVL,14.9,8.15
Masked IL12 HetFc fusion protein variant 37481 (p40 E59S) (Fc fusion) chain 1: [here human IgG1 Fc with changes without letters]SADGGIWELKKDVYVVELDWYPDAPGEMVVLTCDTPEEDGITWTLDQSSEVLGSGKTLTIQVKSFGDAGQYTCHKGGEVLSHSLLLLHKKEDGIWSTDILKDQKEPKNKTFLRCEAKNYSGRFTCWWLTTISTDLTFSVKSSRGSSDPQGVTCGAATLSAERVRGDNKEYEYSVECQEDSACPAAEESLPIEVMVDAVHKLKYENYTSSFFIRDIIKPDPPKNLQLKPLKNSRQVEVSWEYPDTWSTPHSYFSLTFCVQVQGKSKREKKDRVFTDKTSATVICRKNASISVRAQDRYYSSSWSEWASVPCSGGGGSGGGGSGGGGSNLPVATPDPGMFPCLHHSQNLLRAVSNMLQKARQTLEFYPCTSEEIDHEDITKDKTSTVEACLPLELTKNESCLNSRETSFITNGSCLASRKTSFMMALCLSSIYEDLKMYQVEFKTMNAKLLMDPKRQIFLDQNMLAVIDELMQALNFNSETVPQKSSLEEPDFYKTKIKLCILLHAFRIRAVTIDRVMSYLNAS chain 2: EPKSSDKTHTCPPCPAPEAAGGPSVFLFPPKPKDTLMISRTPEVTCVVVSVSHEDPEVKFNWYVDGVEVHNAKTKPREEQYNSTYRVVSVLTVLHQDWLNGKEYKCKVSNKALPAPIEKTISKAKGQPREPQVYVLPPSRDELTKNQVSLLCLVKGFYPSDIAVEWESNGQPENNYLTWPPVLDSDGSFFLYSKLTVDKSRWQQGNVFSCSVMHEALHNHYTQKSLSLSPGGGGGSGGGGSGGGSGGGSGGGGSGGGGSQVQLVESGGGVVQPGRSLRLSCAASGFTFSSYGMHWVRQAPGKGLEWVAFIRYDGSNKYYADSVKGRFTISRDNSKNTLYLQMNSLRAEDTAVYYCKTHGSHDNWGQGTMVTVSSGGSGGGSGGGSGGGSGGGSGQSVLTQPPSVSGAPGQRVTISCSGSRSNIGSNTVKWYQQLPGTAPKLLIYYNDQRPSGVPDRFSGSKSGTSASLAITGLQAEDEADYYCQSYDRYTHPALLFGTGTKVTVL,53.1,29.2
